According to PubChem BioAssay AID1159614 (National Center for Advancing Translational Sciences (NCATS), 2016):
The whole screen tested about 45,000 compounds, of which about 65 (0.1%) were called active. The call rests on the fitted dose curve; in most records, active means well fitted activation curve with a large enough effect; inconclusive means small, poorly fitted or top-dose-only effect; inactive means no such curve, though single readings can be large or run the other way. Some of the results follow.
Further: 0% is about no effect; nearly all actives have a fitted effect of over 65% in size.

These compounds were tested against Galactocerebrosidase (Homo sapiens) (UniProt P54803) (assay: A Novel Cell-Based Assay to Identify Small Molecules for B -Galactocerebrosidase). Conditions: 145M-Twi-hGALC-G270D cells (Twitcher mouse brain line with human GALC G270D), HMU-beta-Gal fluorescence, 48 h; series mostly up to 57.5 µM; activation: at the top concentration.
Chain of UniProt P54803 (P54803 whole entry, looked up): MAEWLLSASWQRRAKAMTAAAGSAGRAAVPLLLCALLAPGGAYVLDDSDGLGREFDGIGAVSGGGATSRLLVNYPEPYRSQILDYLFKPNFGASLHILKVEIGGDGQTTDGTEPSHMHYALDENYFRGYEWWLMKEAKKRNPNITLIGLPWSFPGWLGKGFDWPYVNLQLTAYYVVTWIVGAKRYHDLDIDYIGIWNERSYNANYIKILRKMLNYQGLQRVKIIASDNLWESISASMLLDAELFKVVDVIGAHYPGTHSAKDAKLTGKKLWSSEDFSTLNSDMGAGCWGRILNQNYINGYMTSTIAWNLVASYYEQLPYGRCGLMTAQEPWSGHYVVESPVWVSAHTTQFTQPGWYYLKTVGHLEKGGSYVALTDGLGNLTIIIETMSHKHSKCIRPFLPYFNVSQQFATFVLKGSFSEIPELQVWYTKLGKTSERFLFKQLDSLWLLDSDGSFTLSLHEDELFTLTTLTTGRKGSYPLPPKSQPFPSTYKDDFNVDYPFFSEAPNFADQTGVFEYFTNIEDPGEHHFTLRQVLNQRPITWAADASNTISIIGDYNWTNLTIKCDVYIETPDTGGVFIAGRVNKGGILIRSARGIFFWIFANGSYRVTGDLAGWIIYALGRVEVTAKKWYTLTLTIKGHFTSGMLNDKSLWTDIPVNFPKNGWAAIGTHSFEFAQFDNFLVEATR
How it was run: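 Brain-derived Twitcher mouse 145M-Twi cells stably expressing human GALC-G270D or wild-type GALC, treated live, then residual GALC activity read by fluorescence of HMU-b-Gal substrate (0.1 mM final) in citrate-phosphate buffer pH 5.2 with sodium taurocholate. Signal increase indicates enhancement.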
In the case of COc1cccc(N2CCN(C(=O)c3c(C)oc4ncnc(N5CCCCC5)c34)CC2)c1, the “activation” value is reported as inactive: -5.33%.
With Cc1ccc(-c2nnc(Nc3ccc(O)cc3)c3ccccc23)cc1S(=O)(=O)NCc1nc2ccccc2[nH]1 the “activation” value was inactive: -14.4%.
For COC(=O)CCCCC(CCSS/C(CCO)=C(\C)N(C=O)Cc1cnc(C)nc1N)SC(C)=O (centres undefined), the “activation” value was inactive: -17%.
With CCc1ccc(OCC(=O)N(Cc2ccco2)Cc2ccco2)cc1 the “activation” value was inactive: -9.12%.
In the case of CCCOc1ccc(OC(=O)c2c(-c3ccccc3Cl)noc2C)cc1, the “activation” value is reported as inactive: -16.5%.
With COc1ccc(NC(=O)Cn2c(=O)n(-c3ccc(CC(=O)NCC4CCCO4)cc3)c(=O)c3ccccc32)c(OC)c1 (centres undefined) the “activation” value was inactive: 0.265%.
In the case of COc1ccc(NC(=O)c2cc3c([nH]c2=O)CC(c2ccccc2)CC3=O)cc1 (centres undefined), the “activation” value is reported as inactive: -25.2%.
COc1ccc(-c2nn3c(-c4ccc(C)cc4)nnc3c3ccccc23)cc1 was tested, and the “activation” value was inactive: -12.3%.
For COc1cccc(CN2C(=O)c3ccccc3Sc3ccc(C(=O)NCCc4ccc(Cl)cc4)cc32)c1, the “activation” value was inactive: -19.4%.
In the case of COc1ccc(NC(=O)c2ccc3c(c2)c(C)c(C)n3Cc2ccc(F)cc2)c(OC)c1, the “activation” value is reported as inactive: -12.9%.
COc1ccc(C2=Nn3c(nc4sc(C(=O)Nc5cccc(C)c5)c(C)c4c3=O)SC2)cc1 was tested, and the “activation” value was inactive: -4.84%.
In the case of COc1ccccc1N1CCN(c2nc3ccc(C)cc3nc2-n2nc(C)cc2C)CC1, the “activation” value is reported as inactive: -16.1%.
For CN(C(=O)c1ccc2c(c1)N(Cc1ccccc1F)C(=O)c1ccccc1S2)C1CCCCC1, the “activation” value was inactive: -14.4%.
Cc1cccc(NCc2nnc3n2CCCCC3)c1C was tested, and the “activation” value was inactive: -18.8%.
In the case of CCCN1CCN(CCCNC(=O)c2ccc3c(c2)sc2nc(-c4ccc(C)cc4)cn23)CC1, the “activation” value is reported as inactive: -12%.
Cc1cccc(-c2noc(-c3ccc(NCC4CCCO4)c([N+](=O)[O-])c3)n2)c1 (centres undefined) was tested, and the “activation” value was inactive: 1.42%.
In the case of CCOC(=O)c1c(C)n(-c2ccccc2)c2ccc(OC(=O)c3ccc(OCC)c(OCC)c3)cc12, the “activation” value is reported as inactive: -4.48%.
O=C(C1CCN(c2nc3ccccc3[nH]2)CC1)N1CCN(c2ccccc2)CC1 was tested, and the “activation” value was inactive: -11.1%.
COc1ccccc1NC(=O)CCn1nc(-c2ccccc2)c2ccccc2c1=O was tested, and the “activation” value was inactive: -0.897%.
For Cc1cc(C)cc(OCc2cc(=O)n3cc(C)sc3n2)c1, the “activation” value was inactive: -10.4%.
For Cc1ccc(-c2nnc(Nc3ccc(Cl)cc3)c3ccccc23)cc1S(=O)(=O)N1CCOCC1, the “activation” value was inactive: -8.75%.
With CN(C)S(=O)(=O)c1ccc2c(c1)N(CC(=O)N1CCCCC1)CCS2 the “activation” value was inactive: -10.2%.
Cn1cc(S(=O)(=O)c2ccccc2)c(=O)c2cc(F)c(N3CCN(c4ccc(F)cc4)CC3)cc21 was tested, and the “activation” value was inactive: -10.5%.
In the case of O=C(Nc1c(C(=O)N2CCC(N3CCCCC3)CC2)oc2ccccc12)c1c(F)cccc1F, the “activation” value is reported as inactive: -17.5%.
In the case of Cc1ccc(-n2ncc3c(Nc4cccc(C)c4)ncnc32)cc1, the “activation” value is reported as inactive: 2.24%.
In the case of COc1cccc(-n2c(SCC(=O)N3CCCCC3)nc3c([nH]c4ccccc43)c2=O)c1, the “activation” value is reported as inactive: -2.19%.
In the case of CCOc1ccc(CCNC(=O)C(C)n2nc(C)n3c(cc4occc43)c2=O)cc1OCC (centres undefined), the “activation” value is reported as inactive: -9.65%.
In the case of Cc1ccc(Cl)cc1N1CCN(C(=O)c2cn(C)c3ccc(S(=O)(=O)N(C)C4CCCCC4)cc3c2=O)CC1, the “activation” value is reported as inactive: -15.1%.
For COc1ccc(CNC(=O)CCc2nc3cccnc3n2Cc2ccccc2)cc1, the “activation” value was inactive: 3.58%.
O=C(Cn1cnc(S(=O)(=O)N2CCCC2)c1)Nc1ccccc1 was tested, and the “activation” value was inactive: -2.98%.
Cc1ccc(NC(=O)Cn2c(=O)n(CCC(=O)NCCc3ccccc3)c(=O)c3ccccc32)cc1 was tested, and the “activation” value was inactive: 1.22%.
Cc1cccc(N2CCN(C(=O)c3c(C)oc4nc(C)nc(N5CCCC5)c34)CC2C)c1 (centres undefined) was tested, and the “activation” value was inactive: -0.686%.
CC(=O)Nc1ccc(NC(=O)C(Cc2ccccc2)N2Cc3ccccc3C2=O)cc1 (centres undefined) was tested, and the “activation” value was inactive: -18.3%.
For CC(=O)c1cccc(NC(=O)c2noc3c2CSc2ccccc2-3)c1, the “activation” value was inactive: -6.56%.
In the case of COc1ccc(NC(=O)c2c(N)c(C(=O)c3ccc(C)cc3)n3ccccc23)cc1OC, the “activation” value is reported as inactive: -19.4%.
For Cc1ccc(C)c(CN2C(=O)c3ccccc3Sc3ccc(C(=O)NCc4cccs4)cc32)c1, the “activation” value was inactive: -1.03%.
O=C(CCc1ccccc1)NCCc1csc(-c2cccc(F)c2)n1 was tested, and the “activation” value was inactive: -15.5%.
In the case of COc1ccc(NC(=O)c2ccc3c(c2)c(C)c(C)n3Cc2ccc(F)cc2)cc1, the “activation” value is reported as inactive: -11.5%.
With Cc1cc(C)c2c(-n3cccc3)c(C(=O)NCCCN3CCCCC3)sc2n1 the “activation” value was inactive: -12%.
CCN1CCN(Cc2nc3cc(NC(=O)c4ccccc4[N+](=O)[O-])ccc3n2CC)CC1 was tested, and the “activation” value was inactive: -13.7%.
With Cc1ccc(C)c(NC(=O)C2CCN(c3nn4c(=O)cc(C)nc4s3)CC2)c1 the “activation” value was inactive: -3.26%.
In the case of COc1ccc(-c2nn(C)c3sc(C(=O)N4CCN(c5ccccc5F)CC4)cc23)cc1OC, the “activation” value is reported as inactive: -7.72%.
COc1cccc(CNC(=O)C(C)n2ccc3cc(S(=O)(=O)N4CCCCCC4)ccc32)c1 (centres undefined) was tested, and the “activation” value was inactive: -41.7%.
With Cc1ccccc1OCCSc1nc(C)c(Cc2ccccc2)c(=O)[nH]1 the “activation” value was inactive: 1.15%.
In the case of Cc1cccc2c1-c1sc(C(=O)NCCc3ccc(Cl)cc3)cc1CO2, the “activation” value is reported as inactive: -14.1%.
With COc1ccccc1-c1cc(NC(=O)COc2ccccc2Cl)n(-c2ccccc2)n1 the “activation” value was inactive: -1.25%.
In the case of Cc1ccc(-c2[nH]c3ccccc3c2SCCNC(=O)c2ccc(S(=O)(=O)N3CCOCC3)cc2)cc1, the “activation” value is reported as inactive: -9.89%.
In the case of CCc1ccccc1NC(=O)Cn1c(=O)nc(-c2ccccc2)c2ccccc21, the “activation” value is reported as inactive: 2.92%.
COc1ccc(CCNC(=O)CCn2c(=O)c3ccccc3n(Cc3ccc(Cl)cc3)c2=O)cc1OC was tested, and the “activation” value was inactive: -6.8%.
For CCN1C(C(=O)c2ccccc2)=C(OC(=O)C(C)C)c2ccccc2S1(=O)=O, the “activation” value was inactive: -13.3%.
In the case of COc1ccc(CCNC(=O)CCCCn2c(=O)c3ccccc3n(CC(=O)Nc3ccccc3C)c2=O)cc1OC, the “activation” value is reported as inactive: -10.3%.
COc1ccc(S(=O)(=O)c2cn(Cc3ccccc3)c3cc(N4CCCC4)c(F)cc3c2=O)cc1 was tested, and the “activation” value was inactive: -2.38%.
For O=C(CCNS(=O)(=O)c1ccc2c(c1)CCN2C(=O)C1CC1)N1CCN(c2ccc(F)cc2)CC1, the “activation” value was inactive: -30.3%.
In the case of Cc1cc(C)cc(NC(=O)CSc2nncn3c2cc2occc23)c1, the “activation” value is reported as inactive: -19.2%.
In the case of CCCC(O)c1nc2ccccc2n1CCCCOc1ccc(OC)cc1 (centres undefined), the “activation” value is reported as inactive: -39.7%.
With COc1ccc(CNC(=O)C2CCN(c3nc4ccc(C)cc4[nH]3)CC2)cc1 the “activation” value was inactive: -25.5%.
CCn1c2c(c(=O)n3ncc(C(=O)Nc4cccc(Cl)c4C)c13)CN(Cc1ccc(OC)cc1)CC2 was tested, and the “activation” value was inactive: -9.02%.
CCOC(=O)c1c(C)[nH]c(C)c1S(=O)(=O)N1CCC(C(=O)NCc2ccc(C)cc2)CC1 was tested, and the “activation” value was inactive: -0.398%.
For COc1ccc(CNC(=O)c2nnn(CC(=O)Nc3cc(C)cc(C)c3)c2N)cc1, the “activation” value was inactive: -26.1%.
With Cc1ccc(C)c(CN2CCCN(Cc3cc(C)ccc3C)S2(=O)=O)c1 the “activation” value was inactive: -9%.
COc1ccccc1C(=O)NC1(C(F)(F)F)C(=O)Nc2c1c(=O)[nH]c(=O)n2CCc1ccccc1 (centres undefined) was tested, and the “activation” value was inactive: -5.84%.
CCCn1c(SCC(O)c2cccc(OC)c2)nc2ccccc21 (centres undefined) was tested, and the “activation” value was inactive: -2.51%.
With O=C(Nc1ccc(N2CCN(CCOc3ccc(Cl)cc3)CC2)c(C(=O)O)c1)c1ccc(F)cc1 the “activation” value was inactive: 3.76%.
In the case of Cc1ccc(S(=O)(=O)C(CNC(=O)C(=O)NCCc2ccccc2)c2ccco2)cc1 (centres undefined), the “activation” value is reported as inactive: -17.2%.
In the case of COC(=O)c1ccc(-n2c(/C=C\c3cccc(Br)c3)nc3ccccc3c2=O)cc1, the “activation” value is reported as inactive: -6.03%.
CCc1nc2ccccc2n1CCCCOc1ccccc1C was tested, and the “activation” value was inactive: -13.8%.
With Cc1cnc(NS(=O)(=O)c2ccc(N)cc2)nc1 the “activation” value was inactive: -17.2%.
In the case of Cc1cccc(-c2nc(SCC(=O)Nc3cccc(C(F)(F)F)c3)n3[nH]c(=O)cc3n2)c1, the “activation” value is reported as inactive: -14%.
CCOc1ccc(CNC(=O)C2CCCN(S(=O)(=O)c3ccc4c(c3)CCCC(=O)N4)C2)cc1 (centres undefined) was tested, and the “activation” value was inactive: -33.7%.
With CC(C)CCNC(=O)CSc1c2c(nc3ccc(Cl)cc13)CCCC2 the “activation” value was inactive: -9.61%.
With Cc1ccc(OCc2nc(-c3ccc(C(=O)N4CCN(c5ccc(Cl)cc5)CC4)cc3)oc2C)cc1 the “activation” value was inactive: -3.83%.
CCCCCCn1c(CNC(=O)c2ccccc2)nc2ccccc21 was tested, and the “activation” value was inactive: -18.5%.
In the case of CCCn1c(=O)sc2cc(NC(=O)c3ccccc3OCC)ccc21, the “activation” value is reported as inactive: -12.4%.
For CCOC(=O)C1=C(CN2CCN(CC)CC2)NC(=O)NC1c1ccc(Cl)cc1 (centres undefined), the “activation” value was inactive: -15.6%.
With Cc1cc(C(=O)NCc2ccccc2C)c2c(C)nn(-c3cccc(F)c3)c2n1 the “activation” value was inactive: -5.81%.
For CCn1c(SCC(=O)c2ccc([N+](=O)[O-])cc2)nnc1-c1ccc(Cl)cc1, the “activation” value was inactive: -2.63%.
For CCOC(=O)c1scc(-c2ccc(C)cc2)c1S(=O)(=O)Nc1cc(Cl)ccc1OC, the “activation” value was inactive: -14.5%.
In the case of CCc1ccc(NC(=O)Cn2ncc3c4ccccc4n(C)c3c2=O)cc1, the “activation” value is reported as inactive: 0.208%.
COc1cccc(CNC(=O)Cn2cc3c(n2)-c2c(oc(C(=O)N4CCCC4)c2C)CC3)c1 was tested, and the “activation” value was inactive: -0.753%.
O=C(CC1N=C2c3ccccc3N=C(SCc3ccc(F)cc3)N2C1=O)NCc1cccs1 (centres undefined) was tested, and the “activation” value was inactive: -16.6%.
Clc1cccc(-c2csc(-c3nc(-c4ccc(Br)s4)cs3)n2)c1 was tested, and the “activation” value was inactive: -10%.
CCN(CC)C(=O)c1sc2c(c1C)c(=O)n(-c1ccccc1)c(=O)n2Cc1cc(=O)n2ccccc2n1 was tested, and the “activation” value was inactive: -9.08%.
For CCOc1ccc(NC(=O)c2cc(S(=O)(=O)NC3CCCC3)ccc2F)cc1, the “activation” value was inactive: -10.2%.
CCOC(=O)c1c(S(=O)(=O)NCC(=O)Nc2cccc(CC)c2)c(C)n(C)c1C was tested, and the “activation” value was inactive: -12.7%.
For COC(=O)Cn1c(CN2CCN(c3ccc(OC)cc3)CC2)nc2c1c(=O)[nH]c(=O)n2C, the “activation” value was inactive: -10.6%.
In the case of CCCCn1cc(S(=O)(=O)c2ccc(OC)cc2)c(=O)c2cc(F)c(F)cc21, the “activation” value is reported as inactive: -17.2%.
With CCOc1ccc(S(=O)(=O)N2CCN(c3ccc(Cl)c(Cl)c3)CC2)c2ccccc12 the “activation” value was inactive: -23.6%.
O=C(CCNS(=O)(=O)c1ccc2c(c1)CCN2C(=O)C1CC1)N1CCN(c2ccccc2F)CC1 was tested, and the “activation” value was inactive: -38.3%.
For CCOC(=O)c1c(C)[nH]c(CCC(=O)NCCCN2CCN(c3cc(C)ccc3C)CC2)c1C, the “activation” value was inactive: -9.63%.
For COc1ccccc1CNC(=O)CN1C(=O)CSc2ccc(S(=O)(=O)N(C)C)cc21, the “activation” value was inactive: -14.9%.
For CCc1nc2cccnc2n1-c1ccc(CC(=O)Nc2ccc(C)cc2)cc1, the “activation” value was inactive: -11.1%.
With O=C(O)C1CCC1 the “activation” value was inactive: -11.6%.
With CCOc1ccc(CNC(=O)c2cnc3sc(N(CC)CC)nn3c2=O)cc1OC the “activation” value was inactive: -2.05%.
For O=C(Cn1c(=O)n(-c2ccccc2Cl)c(=O)c2sc3ccccc3c21)N1CCCC1, the “activation” value was inactive: 1.48%.
